Measurements taken from PubChem BioAssay AID493208 (National Center for Advancing Translational Sciences (NCATS), 2011).
Among all 44,000 compounds or so, about 340 (0.77%) were called active. Another 5% or so got no clear call; they are omitted. Calls follow the shape of the dose curve; as a rule, active = well fitted inhibition curve with a large enough effect; inconclusive = small, poorly fitted or top-dose-only effect; inactive = flat fitted curve, though single readings scatter. The list shows a part of the results.

Experiment: Acumen qHTS Assay for Inhibitors of the mTORC1 Signaling Pathway in MEF (Tsc2-/-, p53-/-) Cells: Sytravon; also: nearly all actives have a fitted effect of over 50% in size;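 as to activity change, negative = inhibition: plate controls were DMSO for no effect and rapamycin for full effect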
Conditions: phospho-rpS6 immunofluorescence/PI, 24 h; series mostly up to 38.3 µM; activity change, negative = inhibition: at the top concentration
Outline: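 Compounds act on Tsc2-/-, p53-/- fibroblasts carrying an empty vector for 24 h before fixation and dual staining for phospho-S6 and DNA (propidium iodide). Values are percentages of cells above a rapamycin-defined pS6/PI threshold.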
Potency is read from the fitted curve at half-maximal effect.

Row | Compound | activity change, negative = inhibition | Potency
1 | CCc1cccc(C)c1NC(=O)CCCn1c(=O)c2cccn2c2cccnc21 | inactive: -0.365% | 
2 | CCOC(=O)c1ccccc1NC(=O)NC(C)c1c(-n2cccc2)sc(C)c1C (stereo unspecified) | inactive: -5.92% | 
3 | Cc1ccc(C)c(NC(=O)CN2C(=O)c3cccc4cccc2c34)c1 | inactive: -9.55% | 
4 | O=c1c2ccccc2n2c(-c3ccccc3O)nnc2n1Cc1ccc(F)cc1 | inactive: 0.526% | 
5 | Cc1cccc(Cn2ccn(Cc3ccc(Cl)cc3)c(=O)c2=O)c1 | inactive: -13% | 
6 | CCN(CC)C(=O)c1sc(NC(=O)c2nc3ncccn3n2)c(C(=O)OC)c1C | inactive: -15.4% | 
7 | O=C(CSc1nc(-c2cccc(Cl)c2)nc2cc(=O)[nH]n12)Nc1ccccc1 | inactive: -2.57% | 
8 | CCCCCC(=O)N1c2ccccc2C(C)(c2ccccc2)CC1(C)C (stereo unspecified) | inactive: -0.158% | 
9 | O=C(c1ccccc1Br)N(Cc1ccco1)C1CCS(=O)(=O)C1 (stereo unspecified) | inactive: 0.277% | 
10 | O=C(c1ccc2c(c1)N(Cc1ccccc1)C(=O)c1ccccc1S2(=O)=O)N1CCCC1 | inactive: -4.97% | 
11 | CCC(Sc1nc2c(sc3ccccc32)c(=O)n1CCc1ccccc1)C(=O)N(CC)CC (stereo unspecified) | inactive: 3.09% | 
12 | COc1cccc(CCNC(=O)Cn2c(-c3cccs3)cc3ccccc32)c1 | inactive: -0.904% | 
13 | Cc1ccc(C)c(N2CCN(C(=O)Nc3cn(CC(C)C)c(=O)c4ccccc34)CC2)c1 | inactive: 1.21% | 
14 | COc1ccc(NC(=O)CN2C(=O)C(c3ccc(C(C)(C)C)cc3)=NC2(C)C)cc1Cl | inactive: -1.27% | 
15 | Cc1cccc(Cc2cnc(NC(=O)C3Cc4ccc(C)cc4C(=O)O3)s2)c1 (stereo unspecified) | inactive: -1.71% | 
16 | COc1ccccc1N1CCN(C(=O)C2CCN(S(=O)(=O)c3c(C)noc3/C=C/c3ccc(C)cc3)CC2)CC1 | inactive: -0.175% | 
17 | CCCCn1c(SCC(=O)Nc2cccc(OC)c2)nc2c(sc3ccccc32)c1=O | inactive: -4.24% | 
18 | COc1cccc(Cn2c(=O)n(CC3CCC(C(=O)N4CCCCC4)CC3)c(=O)c3sccc32)c1 (stereo unspecified) | inactive: -6.12% | 
19 | CCOC(=O)N1CCN(Cc2nc3cc(NC(C)=O)ccc3n2C(C)C)CC1 | inactive: -31.1% | 
20 | Cc1cc(C)cc(-n2c(SCC(=O)NCc3ccco3)nc3c([nH]c4ccccc43)c2=O)c1 | inactive: -19.5% | 
21 | CC(C)NC(=O)CCn1c(SCc2c(F)cccc2Cl)nc2c(sc3ccccc32)c1=O | inactive: -2.58% | 

Row | Compound | activity change, negative = inhibition | Potency
22 | COc1cccc(NC(=O)CSc2nnc(COc3ccc(Cl)cc3)o2)c1 | inactive: -0.582% | 
23 | COc1ccc(NC(=O)NCCc2c(C)nn(C)c2C)c(OC)c1 | inactive: 0% | 
24 | Cc1nnc2c(N3CCN(c4ccccc4F)CC3)nc3ccccc3n12 | inactive: 2.76% | 
25 | CCOC(=O)c1cc(-c2ccc(C)cc2)n(CCC(=O)Nc2nc3c(C)cccc3s2)c1C | inactive: 0.519% | 
26 | Cc1ccc2c(c1)c(=O)c1ccccc1n2CCCC(=O)Nc1ccc(C)c(F)c1 | inactive: 21.4% | 
27 | Cc1cc(-n2c(SCC(=O)NCc3ccccc3)nc3ccsc3c2=O)ccc1Cl | inactive: 1.44% | 
28 | CCc1cccc(C)c1NS(=O)(=O)c1cc(-c2cc(C)no2)ccc1C | inactive: 0% | 
29 | Cc1ccc(-n2nnc(-c3nsc(NC(=O)c4ccccc4)n3)c2C)cc1 | inactive: -3.52% | 
30 | Cc1ccc(-n2nc3ccc(NC(=O)c4oc5ccc(C)cc5c4C)cc3n2)cc1 | inactive: -2.52% | 
31 | CCOc1ccc(OCC(=O)NCCS(=O)(=O)N2CCN(c3ccc(F)cc3)CC2)cc1 | inactive: -15.2% | 
32 | O=C(CCC1CCCC1)N1CCc2c([nH]c3ccccc23)C1c1ccc(Cl)cc1 (stereo unspecified) | inactive: 0% | 
33 | CCCOc1ccccc1C(=O)N1CCCCC1CCN1CCOCC1 (stereo unspecified) | inactive: 1.59% | 
34 | CCN(C(=O)Cn1ncc2c(=O)oc3ccc(C)cc3c21)c1cc(OC)ccc1OC | inactive: -4.55% | 
35 | CCOC(=O)C1CCCN(S(=O)(=O)c2ccc(N3CCCCS3(=O)=O)cc2)C1 (stereo unspecified) | inactive: 0% | 
36 | CC1CCc2noc(NC(=O)c3ccccc3[N+](=O)[O-])c2C1 (stereo unspecified) | inactive: -11.5% | 
37 | Cc1cc(C(F)F)n2nc(C(=O)Nc3cc(Cl)ccc3C)nc2n1 | inactive: 1.27% | 
38 | CN1CCN(C(=O)c2ccc3c(c2)N(Cc2cccc(Cl)c2)C(=O)c2ccccc2S3(=O)=O)CC1 | inactive: -6.03% | 
39 | COc1ccccc1CNC(=O)C1CCN(S(=O)(=O)c2c(C)noc2/C=C/c2c(C)cc(C)cc2C)CC1 | inactive: -9.15% | 
40 | O=C(Nc1ccc2nc(SCCOc3ccccc3)sc2c1)c1cccs1 | inactive: -3.47% | 
41 | COc1cccc(CNC(=O)CSc2ncc3c(n2)-c2cc(Cl)ccc2N(C)S3(=O)=O)c1 | inactive: 0% | 
42 | CCOc1ccccc1NC(=O)c1sc2nc(C)cc(C)c2c1N | inactive: 2.76% | 

Row | Compound | activity change, negative = inhibition | Potency
43 | Cc1coc2c(C)c3oc(=O)c(CC(=O)NCc4ccccc4)c(C)c3cc12 | inactive: 3.03% | 
44 | Cc1c(Cl)cccc1NC(=O)CN1C(=O)COc2ccc(S(=O)(=O)N3CCCCCC3)cc21 | inactive: 2.19% | 
45 | COc1cccc(CNC(=O)CN2C(=O)CSc3c2c(C)nn3-c2ccccc2)c1OC | inactive: -0.355% | 
46 | Cc1cccc(C)c1NC(=O)c1nc(S(C)(=O)=O)ncc1N(Cc1ccc(F)cc1)Cc1ccco1 | inactive: -14.3% | 
47 | Cc1ccc(Cl)cc1-n1c(=O)c2sc3ccccc3c2n(CC(=O)NC2CCCCC2)c1=O | inactive: -0.626% | 
48 | COc1ccc(CNC(=O)Cn2c(=O)oc3cc(S(=O)(=O)N4CCC(C)CC4)ccc32)cc1 | inactive: -0.233% | 
49 | CCOC(=O)c1cnc2c(C)cc(C)cc2c1NCCc1ccc(OC)c(OC)c1 | inactive: 0.147% | 
50 | COc1ccc(C(=O)N(Cc2ccc(N(C)C)cc2)Cc2ccco2)cc1Cl | inactive: 1.58% | 
51 | Cc1cc(-c2ccc(C)c(S(=O)(=O)Nc3ccccc3C(F)(F)F)c2)on1 | inactive: -7.68% | 
52 | Cc1ccc2c(CC(=O)NCc3ccccc3)coc2c1C | inactive: -24.1% | 
53 | O=c1c2sc3ccccc3c2n(Cc2ccccc2Cl)c(=O)n1Cc1ccccc1 | inactive: -12.6% | 
54 | Cc1ccc(C)n1-c1c(C(=O)NCC(C)c2ccccc2)sc2ncccc12 (stereo unspecified) | inactive: -7.59% | 
55 | COc1ccc(NC(=O)CCCn2c(=O)c3cccn3c3ccccc32)c(OC)c1 | inactive: 0.686% | 
56 | COc1ccc(C(=O)Oc2c(Sc3ccc(Cl)cc3)c(C)nn2C(C)(C)C)cc1OC | inactive: 3.03% | 
57 | O=C(NCCc1csc(-c2ccc(C(F)(F)F)cc2)n1)C(=O)Nc1cc(F)ccc1F | inactive: -2.89% | 
58 | CCCCN(C)CCNC(=O)C1CCCN(S(=O)(=O)c2ccc3c(c2)oc(=O)n3C)C1 (stereo unspecified) | inactive: 11.8% | 
59 | Cc1c(CCNC(=O)Cc2ccc(F)cc2)sc2nc(-c3ccc(F)cc3)nn12 | inactive: -11.4% | 
60 | O=C(Cn1c(=O)c2ccccc2n(CC(=O)Nc2ccc(Cl)cc2)c1=O)NCCc1ccccc1 |  | active: 16.5 µM
61 | CCc1ccccc1NC(=O)Cn1c(=O)n(CCCS(=O)(=O)C2CCCCC2)c(=O)c2ccccc21 | inactive: -2.07% | 
